Some of the results follow. The main result of the screen is listed elsewhere. These columns were measured beside it and carry no call.
Legend:
Test in all cases: Primary Screen for Target Class Profiling of Small Molecule Inhibitors of Methyltransferases
[1] = target: Glycine N-methyltransferase (Homo sapiens) (UniProt Q14749); conditions: purified enzyme, MTase-Glo SAH luminescence; measured here: GNMT inhibition; at 40 µM; stronger effect = lower value
Outline: (§1)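 Each enzyme was assayed with SAM and its substrate. SAH formation detected by MTase-Glo luminescence; single-point 40 uM screen[…].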

[2] = target: Guanidinoacetate N-methyltransferase (Homo sapiens) (UniProt Q14353); conditions: purified enzyme, MTase-Glo SAH luminescence; measured here: GAMT inhibition; at 40 µM; stronger effect = lower value
Outline: as §1

[3] = target: Histamine N-methyltransferase (Homo sapiens) (UniProt P50135); conditions: purified enzyme, MTase-Glo SAH luminescence; measured here: HNMT inhibition; at 40 µM; stronger effect = lower value
Outline: as §1

[4] = target: Nicotinamide N-methyltransferase (Homo sapiens) (UniProt P40261); conditions: purified enzyme, MTase-Glo SAH luminescence; measured here: NNMT inhibition; at 40 µM; stronger effect = lower value
Outline: as §1

[5] = target: Phenylethanolamine N-methyltransferase (Homo sapiens) (UniProt P11086); conditions: purified enzyme, MTase-Glo SAH luminescence; measured here: PNMT inhibition; at 40 µM; stronger effect = lower value
Outline: as §1
On the % scale 0 is the no-effect control and ±100 the full control effect.

Compound	activity change, negative = inhibition [1]	activity change, negative = inhibition [2]	activity change, negative = inhibition [3]	activity change, negative = inhibition [4]	activity change, negative = inhibition [5]
Cc1ccc(Cn2c(=O)c3ccccc3n3c(=O)n(CC(=O)Nc4ccc(Cl)cc4)nc23)cc1	7.75%	3.91%	11%	8.44%	5.01%
O=C(NCc1cccc(F)c1)c1nc2c(o1)CCN(CC1CCCC1)CC2	-11.9%	-7.95%	-7.88%	-13%	-58.1%
O=C1CN(Cc2c(F)cccc2Cl)S(=O)(=O)c2ccccc2N1Cc1ccc(F)cc1	-7.19%	0%	-2.56%	-15%	-11.4%
CCNC(=O)[C@H]1O[C@@H](n2cnc3c(N)nc(NCCc4ccc(CCC(=O)O)cc4)nc32)[C@H](O)C1O (stereo partly drawn)	-10.9%	-10.4%	3.46%	-15.2%	-7.89%
Cc1ccc(S(=O)(=O)N2CCCC(CNC(=O)c3cccs3)C2)cc1 (stereo not drawn)	-4.09%	-5.15%	-1.36%	-13%	-5.36%
CCOC(=O)c1cc2n(n1)CC(C)(C(=O)NC1CCCC1)N(c1ccccc1C)C2=O (stereo not drawn)	3.61%	1.42%	2.53%	5.69%	1.63%
CCCn1c(=O)c2ccc(C(=O)NC(C)C)cc2n2c(SCC(=O)Nc3cccc(C)c3)nnc12	5.54%	0%	7.84%	7.8%	5.95%
O=C1CN(Cc2ccc(-c3ccsc3)cc2)CCN1c1cc(Cl)ncn1	-8.87%	-5.11%	-5.72%	-12.9%	-13.5%
Nc1nc(OCC2CCCCC2)c2[nH]cnc2n1	-9.16%	2.28%	-5.26%	-19.5%	0.167%
CCOC(=O)N1CCN(C(=O)c2sc(C(C)C)nc2C)CC1	-1.33%	-1.98%	0.89%	2.31%	6.94%
O=C1CC(c2nc(-c3ccc4nc[nH]c4c3)no2)CN1Cc1cccnc1 (stereo not drawn)	-4%	-8.95%	-12.9%	-11.6%	-1.5%
CCOc1ccc(CN2C(=O)c3cc(C(=O)OC)nn3CC2(C)C(=O)NC2CCC(C)CC2)cc1 (stereo not drawn)	7.26%	1.3%	11.4%	8.13%	6.86%
COc1ccc2cc3n(c2c1)CC(C)(C(=O)NC1CCCC1)N(Cc1cccs1)C3=O (stereo not drawn)	-3.28%	5.3%	3.06%	-7.46%	-0.306%
Cn1c(=O)c2ccc(C(=O)NC3CCCCC3)cc2n2c(=O)n(CC(=O)Nc3ccccc3)nc12	-3.42%	0.068%	0.579%	-1.91%	-0.533%
NC(=O)CC[C@H](N)C(=O)O	-4.5%	2.54%	-0.704%	-3.64%	8.98%
CC1(C(=O)NC2CCCCC2)Cn2c(ccc2-c2ccccc2)C(=O)N1CCc1ccc(Cl)cc1 (stereo not drawn)	-0.463%	2.86%	-0.065%	-2.34%	0.664%
CN1CCN(CCCNC(=O)CCc2nnc3n(Cc4ccccc4Cl)c(=O)c4ccccc4n23)CC1	-4.07%	3.75%	-11.5%	10.3%	-0.929%
CCCn1c(=O)c2cc(F)ccc2n2c(SCC(=O)Nc3ccc(C)cc3Cl)nnc12	-5.53%	0%	5.85%	-0.288%	1.76%
CCOC(=O)c1ccc(Nc2ncnc3ccc(Br)cc23)cc1	-5.32%	0%	1.48%	-0.947%	-4.19%
CC(C)(C)NC(=O)[C@@H](c1cccnc1)N(C(=O)c1ccco1)c1ccc(C(C)(C)C)cc1	1.49%	9.8%	2.64%	-14%	-3.47%

Compound	activity change, negative = inhibition [1]	activity change, negative = inhibition [2]	activity change, negative = inhibition [3]	activity change, negative = inhibition [4]	activity change, negative = inhibition [5]
CC1(C)NC(C(=O)O)Cc2c1[nH]c1ccccc21 (stereo not drawn)	5.38%	-3.28%	-2.76%	3.4%	-5%
CCN(CC)CCOc1ccc(Nc2ncc3cc(-c4c(Cl)cccc4Cl)c(=O)n(C)c3n2)cc1	-18.8%	8.52%	-72.3%	-12.6%	-3.47%
Cc1cccc(NC(=O)N2CCCC(Cc3noc(-c4cnccn4)n3)C2)c1 (stereo not drawn)	-0.922%	0.313%	0.945%	-2.3%	-1.73%
CN1CCN(Cc2nnc(C(=O)N3CCC[C@@H]3c3ccc(Br)cc3)n2Cc2ccccc2)CC1	-5.26%	-6.67%	-3.92%	-15.3%	1.78%
COCCN1Cc2nc(-c3ccsc3)ccc2OCC1=O	-4.24%	-2.42%	0.838%	-8.74%	-2.46%
Cc1ccc(NC(=O)CCc2nnc3n(Cc4ccc(Cl)cc4)c(=O)c4ccccc4n23)cc1C	7.03%	4.52%	7.16%	6.1%	-0.409%
CCCn1c(=O)c2ccc(C(=O)NC(C)C)cc2n2c(=O)n(Cc3ccccc3)nc12	5.06%	2.23%	10.1%	-2.23%	5.77%
COc1ccc(CCC(=O)Nc2ccc3c(c2)C(=O)N(C)C2=NCCN23)cc1	-5.41%	-4.24%	4.8%	-4.89%	-7.26%
CCOC(=O)c1cc2n(n1)CC(C)(C(=O)NCCCOC)N(c1ccc(Cl)cc1)C2=O (stereo not drawn)	6.62%	0%	5.09%	10.3%	5.23%
O=C(O)CCC(=O)N1CCC2(CC1)C(=O)NCN2C(=O)Cc1c[nH]c2ccccc12	-3.06%	-2.19%	-2.68%	-7.83%	9.67%
N#Cc1cccnc1N1CCN(c2nccc(N3CCCC(O)C3)n2)CC1 (stereo not drawn)	-5.5%	-1.5%	-5.51%	-3.29%	-1.18%
CC1CCCC(NC(=O)C2(C)Cn3c(cc4sccc43)C(=O)N2Cc2ccc(Cl)cc2)C1C (stereo not drawn)	-8%	-0.758%	-4.18%	-1.67%	-4.11%
CCC(C)NC(=O)c1ccc2c(=O)n(C(C)C)c3nn(Cc4ccc(F)cc4)c(=O)n3c2c1 (stereo not drawn)	-5.26%	2.5%	-3.89%	-3.52%	-2.27%
O=c1cc(-c2cccnc2)nc(-c2cccc(CN3CCNCC3)c2)[nH]1	-2.95%	3.32%	-9.04%	-3.38%	8.47%
CC(C)OC(=O)C(C)(C)Oc1ccc(C(=O)c2ccc(Cl)cc2)cc1	10.2%	14.8%	14.8%	-4.63%	1.18%
Cc1ccc(C(c2sc3nc(-c4ccco4)nn3c2O)N2CCCC2)cc1 (stereo not drawn)		0.678%		-12.4%	3.28%
O=C(NC1CCCC1)NC1CCN(c2nc3ncccc3o2)C1 (stereo not drawn)	-7.14%	-6.75%	-7.12%	-12.1%	-8.66%
COc1ccc(CN2C(=O)c3cc4sccc4n3CC2(C)C(=O)NC2CCCC(C)C2C)cc1 (stereo not drawn)	-3.01%	1.9%	-4.17%	0.581%	-10.6%
C[C@@H]1O[C@@H](O[C@H]2[C@@H](OC(=O)[C@]34CCC(C)(C)CC3C3=CCC5[C@@]6(C)C[C@H](O)[C@H](O[C@@H]7O[C@H](CO)[C@@H](O)[C@H](O)[C@H]7O[C@@H]7OC[C@@H](O)[C@H](O)[C@H]7O)[C@@](C)(C(=O)O)C6CC[C@@]5(C)[C@]3(C)CC4)OC[C@H](O)[C@@H]2O)[C@H](O)[C@H](O)[C@H]1O[C@@H]1OC[C@@H](O)[C@H](O)[C@H]1O (stereo partly drawn)	0.944%	-1.16%	10.1%	-13.2%	7.07%
COc1ccccc1CNC(=O)C1(C)Cn2nc(-c3ccccc3)cc2C(=O)N1c1cccc(SC)c1 (stereo not drawn)	2.03%	0.195%	5.72%	3.25%	-3.02%

Compound	activity change, negative = inhibition [1]	activity change, negative = inhibition [2]	activity change, negative = inhibition [3]	activity change, negative = inhibition [4]	activity change, negative = inhibition [5]
COC(=O)c1ncn2c1C(=O)N(Cc1ccc(OC)cc1OC)C(C)(C(=O)NC1CCCC1)C2 (stereo not drawn)	3.12%	1.77%	7.62%	3.27%	1.44%
CC(C)CCNC(=O)C1c2c(n(C)c3ccccc23)SCC(=O)N1c1ccc2c(c1)OCO2 (stereo not drawn)	-2.33%	-1.43%	1.79%	-6.63%	-6.31%
COc1cc2c(cc1OC)-c1[nH]nc(Nc3cccc(F)c3)c1C2	-11.6%	7.62%	-2.09%	-24.1%	-3.46%
O=C(Nc1cccc(-c2ccc(N3CCOCC3)nn2)c1)Nc1ccc(F)cc1F	-13.7%	-16.4%	-14.2%	-26.4%	-18.8%
OC(CNCCc1c[nH]c2ccccc12)Cn1c2ccccc2c2ccccc21 (stereo not drawn)	-2.91%	6.92%	-15%	-20.8%	-5.3%
CCCn1c(=O)c2ccccc2n2c(=O)n(CC(=O)NCc3ccccc3)nc12	2.76%	1.2%	3.07%	-7.11%	1.76%
CC(C)Cn1c(=O)c2ccc(C(=O)NC3CCCC3)cc2n2c(SCC(=O)NC3CCCC3)nnc12	1.33%	0%	2.39%	0.878%	4.02%
CC(=O)O[C@H]1C[C@@H](O)C(C)(C)C2C[C@@H](OC(C)=O)[C@]3(C)C(CC[C@@]4(C)[C@H](c5ccoc5)OC(=O)[C@H]5O[C@]543)[C@]21C (stereo partly drawn)	0.518%	0.064%	8.92%	-11.8%	4.62%
Cc1ccc(-c2n[nH]n3c2nc(=O)c2ccc(C(=O)NCc4ccc(F)cc4)cc23)cc1	-12.2%	-2.4%	-1.37%	-8.37%	-4.78%
CC(C)CC(c1c(O)c(C=O)c(O)c(C=O)c1O)C1CCC(C)(O)C2CC(C(C)(C)O)CCC12C (stereo not drawn)	2.9%	2.73%	13.5%	-23%	10.1%
CN(C)c1nc(Cc2ccc(NC(=O)c3ccc(C(F)(F)F)cc3)cc2)nc(N(C)C)c1CC(=O)O	5.41%	-2.92%	8.96%	-16.6%	-0.001%
CC(C)C(=O)N1CCN(c2nc3c(s2)CC(C(=O)NCc2ccco2)CC3)CC1 (stereo not drawn)	-1.59%	-1.39%	-0.291%	1.53%	-0.918%
CCCn1c(=O)c2ccc(Cl)cc2n2c(SCc3ccc(C)cc3)nnc12	-8.51%	1.33%	2.87%	1.58%	1.24%
O=C(c1ccc2ccccc2n1)N1CCC(n2cc(-c3nc(-c4ccccc4)no3)nn2)C1 (stereo not drawn)	-8.99%	1.66%	0.026%	-3.75%	-15.4%
O=C1CC(c2ccc([N+](=O)[O-])cc2)=NN1c1ccccc1	-8.69%	-1.11%	4.38%	-14.3%	4.1%
CC(C)CN1C2CCC1CN(C(=O)Nc1ccccc1F)C2	-5.81%	-6.13%	-4.27%	-7.69%	-10.9%
COc1ccc(CN2C(=Nc3ccc(Cl)cc3)S[C@H]3[C@@H]2[C@@H](O)[C@H](O)C[C@@H]3C(N)=O)cc1	-0.702%	3.03%	3.74%	1.05%	2.6%
COc1ccc(OC)c(N2C(=O)CSc3c(c4ccccc4n3C)C2C(=O)NCc2ccc(F)cc2)c1 (stereo not drawn)	-7.01%	-1.39%	5.41%	-3.26%	0.039%
